Assay results: publication PMC11079023
No constants are given. Whether binding was seen depends on the method and setting. For part of these data: In cells and extracts the contact can be indirect. Some binding calls cover weakened binding; strength is not graded here. Sequences can lack the tags named with a protein. Values belong to the molecule of their own block, whether it stands above or below them.

Protein sequences, listed by entry. Tags and fused reporters are not part of them.
UniProt Q93Z00: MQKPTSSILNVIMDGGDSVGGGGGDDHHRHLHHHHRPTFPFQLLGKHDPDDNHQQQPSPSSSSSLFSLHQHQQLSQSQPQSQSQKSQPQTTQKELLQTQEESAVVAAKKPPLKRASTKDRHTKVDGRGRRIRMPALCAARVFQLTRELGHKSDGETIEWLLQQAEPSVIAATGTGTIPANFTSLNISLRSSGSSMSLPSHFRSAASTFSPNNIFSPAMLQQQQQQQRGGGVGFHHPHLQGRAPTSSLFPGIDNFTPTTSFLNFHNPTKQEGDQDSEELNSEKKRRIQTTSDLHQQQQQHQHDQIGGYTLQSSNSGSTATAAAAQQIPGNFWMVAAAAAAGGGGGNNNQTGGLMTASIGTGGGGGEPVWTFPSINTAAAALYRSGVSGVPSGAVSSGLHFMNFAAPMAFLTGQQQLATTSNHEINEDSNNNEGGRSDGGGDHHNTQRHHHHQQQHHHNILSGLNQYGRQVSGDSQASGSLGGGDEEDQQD
UniProt Q8S307: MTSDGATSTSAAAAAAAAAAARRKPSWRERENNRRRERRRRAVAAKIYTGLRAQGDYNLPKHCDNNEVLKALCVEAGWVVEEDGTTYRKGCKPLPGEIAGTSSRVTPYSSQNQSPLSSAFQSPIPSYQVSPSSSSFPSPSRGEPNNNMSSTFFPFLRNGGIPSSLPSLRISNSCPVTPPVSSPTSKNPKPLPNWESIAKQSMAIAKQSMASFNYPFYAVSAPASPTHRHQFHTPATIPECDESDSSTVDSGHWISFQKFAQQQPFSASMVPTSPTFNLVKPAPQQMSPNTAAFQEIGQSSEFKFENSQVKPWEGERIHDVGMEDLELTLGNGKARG

What was measured:
[1] = target: T1, BD-M5RGA^m3 (RGA from amino acid 199 with S578Stop, fused to the GAL4 DNA-binding domain) (Arabidopsis) (UniProt Q9SLH3); experiment: two-hybrid; BD-M5DELLA (pGBKT7, RGA 199-587 and variants) and AD-JAZ1, AD-TCP14, AD-IDD2 or AD-BZR1 (pGADT7) co-transformed in yeast AH109; growth on selective medium lacking tryptophan, leucine and histidine, in some cases with 3AT
T1 sequence: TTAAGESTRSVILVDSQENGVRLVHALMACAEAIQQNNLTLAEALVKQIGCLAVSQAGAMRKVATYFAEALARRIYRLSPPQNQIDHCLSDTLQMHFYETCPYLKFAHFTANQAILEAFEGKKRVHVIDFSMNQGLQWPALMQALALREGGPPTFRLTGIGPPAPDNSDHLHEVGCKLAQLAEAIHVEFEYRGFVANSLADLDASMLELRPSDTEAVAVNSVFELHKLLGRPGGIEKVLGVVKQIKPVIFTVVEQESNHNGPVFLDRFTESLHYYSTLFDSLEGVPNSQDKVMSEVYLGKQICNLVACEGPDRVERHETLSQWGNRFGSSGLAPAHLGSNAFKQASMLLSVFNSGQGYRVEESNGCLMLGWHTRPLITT

[2] = target: T2, BD-M5RGA^m4 (RGA 199-587 with S578D, fused to the GAL4 DNA-binding domain) (Arabidopsis) (UniProt Q9SLH3); experiment: as above
T2 sequence: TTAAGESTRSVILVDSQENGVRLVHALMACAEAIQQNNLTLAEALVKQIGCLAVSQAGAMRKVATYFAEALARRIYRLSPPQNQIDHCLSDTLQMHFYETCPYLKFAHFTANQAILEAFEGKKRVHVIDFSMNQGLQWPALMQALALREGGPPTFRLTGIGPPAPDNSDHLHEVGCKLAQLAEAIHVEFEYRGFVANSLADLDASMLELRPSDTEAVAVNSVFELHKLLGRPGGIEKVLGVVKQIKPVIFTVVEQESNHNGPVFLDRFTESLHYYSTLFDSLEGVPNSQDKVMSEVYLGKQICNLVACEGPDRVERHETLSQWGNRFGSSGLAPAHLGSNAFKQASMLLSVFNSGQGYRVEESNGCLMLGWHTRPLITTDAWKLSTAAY

[3] = target: T3, BD-M5RGA^m1 (RGA 199-587 with G218A, V219A, R220A, fused to the GAL4 DNA-binding domain) (Arabidopsis) (UniProt Q9SLH3); experiment: as above
T3 sequence: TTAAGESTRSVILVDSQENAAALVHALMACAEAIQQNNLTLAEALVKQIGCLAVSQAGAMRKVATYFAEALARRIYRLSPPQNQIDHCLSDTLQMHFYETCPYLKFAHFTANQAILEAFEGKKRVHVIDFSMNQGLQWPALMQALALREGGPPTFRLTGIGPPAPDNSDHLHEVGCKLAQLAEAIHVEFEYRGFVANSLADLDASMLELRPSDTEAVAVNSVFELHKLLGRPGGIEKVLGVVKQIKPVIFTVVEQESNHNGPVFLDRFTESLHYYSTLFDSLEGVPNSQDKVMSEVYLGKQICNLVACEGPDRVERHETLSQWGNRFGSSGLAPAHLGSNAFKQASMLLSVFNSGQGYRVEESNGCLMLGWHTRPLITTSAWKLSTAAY

[4] = target: T4, BD-M5RGA (C-terminal part of RGA, amino acids 199 to 587, fused to the GAL4 DNA-binding domain) (Arabidopsis) (UniProt Q9SLH3); experiment: as above
T4 sequence: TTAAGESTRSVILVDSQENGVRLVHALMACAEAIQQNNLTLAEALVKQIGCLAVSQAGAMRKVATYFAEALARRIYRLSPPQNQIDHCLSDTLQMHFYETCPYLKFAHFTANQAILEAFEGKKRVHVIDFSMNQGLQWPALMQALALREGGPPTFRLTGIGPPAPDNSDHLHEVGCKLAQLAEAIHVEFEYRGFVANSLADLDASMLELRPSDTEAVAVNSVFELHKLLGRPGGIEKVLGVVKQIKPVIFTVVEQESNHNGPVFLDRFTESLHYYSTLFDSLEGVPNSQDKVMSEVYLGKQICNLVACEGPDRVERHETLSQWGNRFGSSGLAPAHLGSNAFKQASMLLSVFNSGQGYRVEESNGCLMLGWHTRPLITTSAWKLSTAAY

[5] = target: T5, BD-M5RGA^m2 (RGA 199-587 with H471A, Y472A, Y473A, fused to the GAL4 DNA-binding domain) (Arabidopsis) (UniProt Q9SLH3); experiment: as above
T5 sequence: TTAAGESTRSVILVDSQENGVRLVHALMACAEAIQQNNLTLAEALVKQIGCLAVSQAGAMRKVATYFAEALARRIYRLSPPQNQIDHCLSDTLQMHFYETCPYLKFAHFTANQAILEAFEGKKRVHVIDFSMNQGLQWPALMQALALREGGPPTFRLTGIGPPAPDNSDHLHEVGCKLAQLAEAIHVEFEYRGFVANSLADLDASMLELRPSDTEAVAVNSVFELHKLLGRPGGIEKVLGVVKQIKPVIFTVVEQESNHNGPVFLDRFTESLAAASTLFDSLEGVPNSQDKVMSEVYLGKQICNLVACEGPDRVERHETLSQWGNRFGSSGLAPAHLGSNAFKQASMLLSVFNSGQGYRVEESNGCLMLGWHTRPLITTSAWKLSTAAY

RGA-GFP (Arabidopsis) = target: T6, RGA-GFP (Arabidopsis) (UniProt Q9SLH3); experiment: co-IP; protein extracts of N. benthamiana agro-infiltrated leaves (native extraction buffer, Tris-HCl pH 7.5 50 mM, glycerol 10%, nonidet P-40 0.1%); 2 h at 4 °C with anti-GFP paramagnetic beads; co-precipitated RFP fusions detected with anti-RFP
T6 sequence: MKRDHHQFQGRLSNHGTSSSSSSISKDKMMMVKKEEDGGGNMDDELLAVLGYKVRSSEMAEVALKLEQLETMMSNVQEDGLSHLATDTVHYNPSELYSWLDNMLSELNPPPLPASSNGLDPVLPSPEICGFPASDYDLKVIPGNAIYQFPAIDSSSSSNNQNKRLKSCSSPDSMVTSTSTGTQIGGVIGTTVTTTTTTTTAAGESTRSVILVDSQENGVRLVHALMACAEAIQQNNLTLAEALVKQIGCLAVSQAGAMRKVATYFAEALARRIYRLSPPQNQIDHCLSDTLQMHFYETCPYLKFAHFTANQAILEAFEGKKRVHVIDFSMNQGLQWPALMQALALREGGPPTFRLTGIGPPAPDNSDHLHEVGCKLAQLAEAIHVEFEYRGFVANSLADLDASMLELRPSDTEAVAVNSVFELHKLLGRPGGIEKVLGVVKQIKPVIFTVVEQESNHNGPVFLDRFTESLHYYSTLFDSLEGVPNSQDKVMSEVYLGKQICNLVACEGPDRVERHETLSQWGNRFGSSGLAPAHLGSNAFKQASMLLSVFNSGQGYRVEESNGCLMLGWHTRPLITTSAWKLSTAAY

[6] = target: T7, BD-RGA^m2 (full-length RGA with H471A, Y472A, Y473A, fused to the GAL4 DNA-binding domain) (Arabidopsis) (UniProt Q9SLH3); experiment: two-hybrid; BD-DELLA (full-length, pGBKT7) and AD-GID1 (pGADT7) co-transformed in yeast AH109; growth on selective medium lacking tryptophan, leucine and histidine supplemented with 100 µM GA3
T7 sequence: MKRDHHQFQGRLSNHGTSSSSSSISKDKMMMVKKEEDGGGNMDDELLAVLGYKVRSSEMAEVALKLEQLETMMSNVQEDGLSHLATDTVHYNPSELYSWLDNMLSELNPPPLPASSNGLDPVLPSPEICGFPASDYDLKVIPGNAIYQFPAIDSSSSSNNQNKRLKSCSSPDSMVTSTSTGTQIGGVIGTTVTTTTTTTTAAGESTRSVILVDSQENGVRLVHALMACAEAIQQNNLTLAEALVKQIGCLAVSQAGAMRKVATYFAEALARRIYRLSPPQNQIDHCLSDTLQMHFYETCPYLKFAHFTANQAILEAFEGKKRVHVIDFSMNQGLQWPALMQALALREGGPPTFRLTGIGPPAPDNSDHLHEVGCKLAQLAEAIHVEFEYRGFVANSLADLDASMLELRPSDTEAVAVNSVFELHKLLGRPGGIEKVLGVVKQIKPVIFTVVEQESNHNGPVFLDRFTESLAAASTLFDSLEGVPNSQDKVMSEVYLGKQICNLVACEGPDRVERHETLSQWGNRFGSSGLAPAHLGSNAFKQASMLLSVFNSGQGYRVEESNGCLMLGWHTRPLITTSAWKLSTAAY

binding [1]: no binding
binding [2]: no binding
binding [3]: binds
binding [4]: binds
binding [5]: no binding
Molecule: AD-TCP14 (from UniProt Q93Z00 1-489)

binding [5]: no binding
Molecule: AD-BZR1 (from UniProt Q8S307 1-336)

binding (RGA-GFP (Arabidopsis)): binds
Molecule: TCP14-RFP (from UniProt Q93Z00 1-489)

binding [6]: binds
B1: AD-GID1b (receptor, UniProt Q9LYC1 1-358)
chain: MAGGNEVNLNECKRIVPLNTWVLISNFKLAYKVLRRPDGSFNRDLAEFLDRKVPANSFPLDGVFSFDHVDSTTNLLTRIYQPASLLHQTRHGTLELTKPLSTTEIVPVLIFFHGGSFTHSSANSAIYDTFCRRLVTICGVVVVSVDYRRSPEHRYPCAYDDGWNALNWVKSRVWLQSGKDSNVYVYLAGDSSGGNIAHNVAVRATNEGVKVLGNILLHPMFGGQERTQSEKTLDGKYFVTIQDRDWYWRAYLPEGEDRDHPACNPFGPRGQSLKGVNFPKSLVVVAGLDLVQDWQLAYVDGLKKTGLEVNLLYLKQATIGFYFLPNNDHFHCLMEELNKFVHSIEDSQSKSSPVLLTP

binding [6]: binds
B2: AD-GID1c (receptor, UniProt Q940G6 1-344)
chain: MAGSEEVNLIESKTVVPLNTWVLISNFKLAYNLLRRPDGTFNRHLAEFLDRKVPANANPVNGVFSFDVIIDRQTNLLSRVYRPADAGTSPSITDLQNPVDGEIVPVIVFFHGGSFAHSSANSAIYDTLCRRLVGLCGAVVVSVNYRRAPENRYPCAYDDGWAVLKWVNSSSWLRSKKDSKVRIFLAGDSSGGNIVHNVAVRAVESRIDVLGNILLNPMFGGTERTESEKRLDGKYFVTVRDRDWYWRAFLPEGEDREHPACSPFGPRSKSLEGLSFPKSLVVVAGLDLIQDWQLKYAEGLKKAGQEVKLLYLEQATIGFYLLPNNNHFHTVMDEIAAFVNAECQ
